Laboratory results published in the supplement of paper PMC8728848.
The other results are listed elsewhere or left out.

Legend:
Assay in all cases: glycan array binding signal (z-score within array); higher = stronger binding
Settings in all cases: glycan notation: IUPAC condensed, linker removed
[1] = molecular target: Neu5Ac(a2-3)Gal(b1-3)GlcNAc(b1-3)Gal(b1-3)GlcNAc
Procedure, shortened: (§1)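 The binding signal is a Z-score computed within each array. Data were drawn from 3228 arrays in the Consortium for Functional Glycomics database, restricted to those with a known protein sequence. Scores were averaged over arrays of the same protein sequence at different concentrations or buffers, and over linkers, and negative values can be taken as non-binding.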

[2] = molecular target: Neu5Ac(a2-3)Gal(b1-3)GlcNAc6S
Procedure, shortened: as §1

[3] = molecular target: Neu5Ac(a2-3)Gal(b1-3)[Fuc(a1-4)]GlcNAc
Procedure, shortened: as §1

[4] = molecular target: Neu5Ac(a2-3)Gal(b1-3)[Fuc(a1-4)]GlcNAc(b1-3)Gal(b1-3)[Fuc(a1-4)]GlcNAc
Procedure, shortened: as §1

[5] = molecular target: Neu5Ac(a2-3)Gal(b1-3)[Fuc(a1-4)]GlcNAc(b1-3)Gal(b1-4)[Fuc(a1-3)]GlcNAc
Procedure, shortened: as §1

[6] = molecular target: Neu5Ac(a2-3)Gal(b1-3)[Neu5Ac(a2-3)Gal(b1-4)]GlcNAc
Procedure, shortened: as §1

[7] = molecular target: Neu5Ac(a2-3)Gal(b1-3)[Neu5Ac(a2-6)]GalNAc
Procedure, shortened: as §1

[8] = molecular target: Neu5Ac(a2-3)Gal(b1-4)Glc
Procedure, shortened: as §1

[9] = molecular target: Neu5Ac(a2-3)Gal(b1-4)GlcNAc
Procedure, shortened: as §1

[10] = molecular target: Neu5Ac(a2-3)Gal(b1-4)GlcNAc(b1-2)Man(a1-3)[GlcNAc(b1-2)Man(b1-4)GlcNAc(b1-2)Man(a1-6)]Man(b1-4)GlcNAc(b1-4)GlcNAc
Procedure, shortened: as §1

[11] = molecular target: Neu5Ac(a2-3)Gal(b1-4)GlcNAc(b1-2)Man(a1-3)[Neu5Ac(a2-6)Gal(b1-4)GlcNAc(b1-2)Man(a1-6)]Man(b1-4)GlcNAc(b1-4)GlcNAc
Procedure, shortened: as §1

[12] = molecular target: Neu5Ac(a2-3)Gal(b1-4)GlcNAc(b1-3)Gal(b1-3)GlcNAc
Procedure, shortened: as §1

[13] = molecular target: Neu5Ac(a2-3)Gal(b1-4)GlcNAc(b1-3)Gal(b1-4)GlcNAc
Procedure, shortened: as §1

[14] = molecular target: Neu5Ac(a2-3)Gal(b1-4)GlcNAc(b1-3)Gal(b1-4)GlcNAc(b1-3)Gal(b1-4)GlcNAc
Procedure, shortened: as §1

[15] = molecular target: Neu5Ac(a2-3)Gal(b1-4)GlcNAc(b1-3)Gal(b1-4)[Fuc(a1-3)]GlcNAc
Procedure, shortened: as §1

[16] = molecular target: Neu5Ac(a2-3)Gal(b1-4)GlcNAc(b1-3)GalNAc
Procedure, shortened: as §1

[17] = molecular target: Neu5Ac(a2-3)Gal(b1-4)GlcNAc(b1-6)[Gal(b1-3)]GalNAc
Procedure, shortened: as §1

[18] = molecular target: Neu5Ac(a2-3)Gal(b1-4)GlcNAc(b1-6)[Neu5Ac(a2-3)Gal(b1-3)]GalNAc
Procedure, shortened: as §1

[19] = molecular target: Neu5Ac(a2-3)Gal(b1-4)GlcNAc6S
Procedure, shortened: as §1

[20] = molecular target: Neu5Ac(a2-3)Gal(b1-4)[Fuc(a1-3)]GlcNAc
Procedure, shortened: as §1

[21] = molecular target: Neu5Ac(a2-3)Gal(b1-4)[Fuc(a1-3)]GlcNAc(b1-3)Gal
Procedure, shortened: as §1

[22] = molecular target: Neu5Ac(a2-3)Gal(b1-4)[Fuc(a1-3)]GlcNAc(b1-3)Gal(b1-4)GlcNAc
Procedure, shortened: as §1

[23] = molecular target: Neu5Ac(a2-3)Gal(b1-4)[Fuc(a1-3)]GlcNAc(b1-3)Gal(b1-4)[Fuc(a1-3)]GlcNAc(b1-3)Gal(b1-4)[Fuc(a1-3)]GlcNAc
Procedure, shortened: as §1

[24] = molecular target: Neu5Ac(a2-3)Gal(b1-4)[Fuc(a1-3)]GlcNAc(b1-6)[Gal(b1-3)]GalNAc
Procedure, shortened: as §1

[25] = molecular target: Neu5Ac(a2-3)Gal(b1-4)[Fuc(a1-3)]GlcNAc(b1-6)[Neu5Ac(a2-3)Gal(b1-3)]GalNAc
Procedure, shortened: as §1

[26] = molecular target: Neu5Ac(a2-3)Gal(b1-4)[Fuc(a1-3)]GlcNAc6S
Procedure, shortened: as §1

[27] = molecular target: Neu5Ac(a2-3)Gal6S(b1-4)GlcNAc
Procedure, shortened: as §1

[28] = molecular target: Neu5Ac(a2-3)Gal6S(b1-4)[Fuc(a1-3)]GlcNAc
Procedure, shortened: as §1

[29] = molecular target: Neu5Ac(a2-3)GalNAc
Procedure, shortened: as §1

[30] = molecular target: Neu5Ac(a2-3)GalNAc(b1-4)GlcNAc
Procedure, shortened: as §1

[31] = molecular target: Neu5Ac(a2-3)[GalNAc(b1-4)]Gal(b1-4)Glc
Procedure, shortened: as §1

[32] = molecular target: Neu5Ac(a2-3)[GalNAc(b1-4)]Gal(b1-4)GlcNAc
Procedure, shortened: as §1

[33] = molecular target: Neu5Ac(a2-3)[Neu5Ac(a2-6)]GalNAc
Procedure, shortened: as §1

[34] = molecular target: Neu5Ac(a2-6)Gal
Procedure, shortened: as §1

[35] = molecular target: Neu5Ac(a2-6)Gal(b1-4)Glc
Procedure, shortened: as §1

[36] = molecular target: Neu5Ac(a2-6)Gal(b1-4)GlcNAc
Procedure, shortened: as §1

[37] = molecular target: Neu5Ac(a2-6)Gal(b1-4)GlcNAc(b1-2)Man(a1-3)Man(b1-4)GlcNAc(b1-4)GlcNAc
Procedure, shortened: as §1

[38] = molecular target: Neu5Ac(a2-6)Gal(b1-4)GlcNAc(b1-2)Man(a1-3)[Gal(b1-4)GlcNAc(b1-2)Man(a1-6)]Man(b1-4)GlcNAc(b1-4)GlcNAc
Procedure, shortened: as §1

[39] = molecular target: Neu5Ac(a2-6)Gal(b1-4)GlcNAc(b1-2)Man(a1-3)[GlcNAc(b1-2)Man(a1-6)]Man(b1-4)GlcNAc(b1-4)GlcNAc
Procedure, shortened: as §1

[40] = molecular target: Neu5Ac(a2-6)Gal(b1-4)GlcNAc(b1-2)Man(a1-3)[GlcNAc(b1-2)Man(b1-4)GlcNAc(b1-2)Man(a1-6)]Man(b1-4)GlcNAc(b1-4)GlcNAc
Procedure, shortened: as §1

[41] = molecular target: Neu5Ac(a2-6)Gal(b1-4)GlcNAc(b1-2)Man(a1-3)[Man(a1-6)]Man(b1-4)GlcNAc(b1-4)GlcNAc
Procedure, shortened: as §1

[42] = molecular target: Neu5Ac(a2-6)Gal(b1-4)GlcNAc(b1-2)Man(a1-3)[Neu5Ac(a2-6)Gal(b1-4)GlcNAc(b1-2)Man(a1-6)]Man(b1-4)GlcNAc(b1-4)GlcNAc
Procedure, shortened: as §1

[43] = molecular target: Neu5Ac(a2-6)Gal(b1-4)GlcNAc(b1-2)Man(a1-6)Man(b1-4)GlcNAc(b1-4)GlcNAc
Procedure, shortened: as §1

[44] = molecular target: Neu5Ac(a2-6)Gal(b1-4)GlcNAc(b1-2)Man(a1-6)[Gal(b1-4)GlcNAc(b1-2)Man(a1-3)]Man(b1-4)GlcNAc(b1-4)GlcNAc
Procedure, shortened: as §1

[45] = molecular target: Neu5Ac(a2-6)Gal(b1-4)GlcNAc(b1-2)Man(a1-6)[GlcNAc(b1-2)Man(a1-3)]Man(b1-4)GlcNAc(b1-4)GlcNAc
Procedure, shortened: as §1

B1: MVL (Microcystis viridis), Q9RHG4 (protein)
chain: MASYKVNIPAGPLWSNAEAQQVGPKIAAAHQGNFTGQWTTVVESAMSVVEVELQVENTGIHEFKTDVLAGPLWSNDEAQKLGPQIAASYGAEFTGQWRTIVEGVMSVIQIKYTF
glycan array binding signal (z-score) [1]: -0.241
glycan array binding signal (z-score) [2]: -0.234
glycan array binding signal (z-score) [3]: -0.24
glycan array binding signal (z-score) [4]: -0.088
glycan array binding signal (z-score) [5]: -0.175
glycan array binding signal (z-score) [6]: -0.233
glycan array binding signal (z-score) [7]: -0.195
glycan array binding signal (z-score) [8]: -0.232
glycan array binding signal (z-score) [9]: -0.233
glycan array binding signal (z-score) [10]: 0.586
glycan array binding signal (z-score) [11]: 0.954
glycan array binding signal (z-score) [12]: -0.24
glycan array binding signal (z-score) [13]: -0.229
glycan array binding signal (z-score) [14]: -0.241
glycan array binding signal (z-score) [15]: -0.239
glycan array binding signal (z-score) [16]: -0.238
glycan array binding signal (z-score) [17]: -0.247
glycan array binding signal (z-score) [18]: -0.226
glycan array binding signal (z-score) [19]: -0.238
glycan array binding signal (z-score) [20]: -0.23
glycan array binding signal (z-score) [21]: -0.239
glycan array binding signal (z-score) [22]: -0.205
glycan array binding signal (z-score) [23]: -0.242
glycan array binding signal (z-score) [24]: -0.078
glycan array binding signal (z-score) [25]: -0.186
glycan array binding signal (z-score) [26]: -0.235
glycan array binding signal (z-score) [27]: -0.23
glycan array binding signal (z-score) [28]: -0.24
glycan array binding signal (z-score) [29]: -0.194
glycan array binding signal (z-score) [30]: -0.247
glycan array binding signal (z-score) [31]: -0.242
glycan array binding signal (z-score) [32]: -0.233
glycan array binding signal (z-score) [33]: -0.222
glycan array binding signal (z-score) [34]: -0.236
glycan array binding signal (z-score) [35]: -0.237
glycan array binding signal (z-score) [36]: -0.241
glycan array binding signal (z-score) [37]: 0.179
glycan array binding signal (z-score) [38]: 1.31
glycan array binding signal (z-score) [39]: 0.479
glycan array binding signal (z-score) [40]: 0.477
glycan array binding signal (z-score) [41]: 0.819
glycan array binding signal (z-score) [42]: 0.682
glycan array binding signal (z-score) [43]: 0.781
glycan array binding signal (z-score) [44]: 0.474
glycan array binding signal (z-score) [45]: 1.22
